Experimental data as given in PubChem BioAssay AID1645882 (National Center for Advancing Translational Sciences (NCATS), 2021).
The whole screen tested about 16,000 compounds, of which about 120 (0.75%) were called active. Roughly 4% stayed inconclusive and do not appear here. The call rests on the fitted dose curve; in most records, active means well fitted inhibition curve with a large enough effect; inconclusive means small, poorly fitted or top-dose-only effect; inactive means no such curve, though single readings can be large or run the other way. Some of the results follow.

These molecules were tested against Rap guanine nucleotide exchange factor 3 (Homo sapiens) (UniProt O95398) (assay: Validation qHTS for antagonist of cAMP-regulated guanine nucleotide exchange factor 3 (EPAC1)). Settings: EPAC1 Rap1B-BODIPY-GDP exchange, fluorescence; series mostly up to 150 µM; activity change, negative = inhibition: at the top concentration.
Chain of UniProt O95398 (O95398 whole entry, looked up): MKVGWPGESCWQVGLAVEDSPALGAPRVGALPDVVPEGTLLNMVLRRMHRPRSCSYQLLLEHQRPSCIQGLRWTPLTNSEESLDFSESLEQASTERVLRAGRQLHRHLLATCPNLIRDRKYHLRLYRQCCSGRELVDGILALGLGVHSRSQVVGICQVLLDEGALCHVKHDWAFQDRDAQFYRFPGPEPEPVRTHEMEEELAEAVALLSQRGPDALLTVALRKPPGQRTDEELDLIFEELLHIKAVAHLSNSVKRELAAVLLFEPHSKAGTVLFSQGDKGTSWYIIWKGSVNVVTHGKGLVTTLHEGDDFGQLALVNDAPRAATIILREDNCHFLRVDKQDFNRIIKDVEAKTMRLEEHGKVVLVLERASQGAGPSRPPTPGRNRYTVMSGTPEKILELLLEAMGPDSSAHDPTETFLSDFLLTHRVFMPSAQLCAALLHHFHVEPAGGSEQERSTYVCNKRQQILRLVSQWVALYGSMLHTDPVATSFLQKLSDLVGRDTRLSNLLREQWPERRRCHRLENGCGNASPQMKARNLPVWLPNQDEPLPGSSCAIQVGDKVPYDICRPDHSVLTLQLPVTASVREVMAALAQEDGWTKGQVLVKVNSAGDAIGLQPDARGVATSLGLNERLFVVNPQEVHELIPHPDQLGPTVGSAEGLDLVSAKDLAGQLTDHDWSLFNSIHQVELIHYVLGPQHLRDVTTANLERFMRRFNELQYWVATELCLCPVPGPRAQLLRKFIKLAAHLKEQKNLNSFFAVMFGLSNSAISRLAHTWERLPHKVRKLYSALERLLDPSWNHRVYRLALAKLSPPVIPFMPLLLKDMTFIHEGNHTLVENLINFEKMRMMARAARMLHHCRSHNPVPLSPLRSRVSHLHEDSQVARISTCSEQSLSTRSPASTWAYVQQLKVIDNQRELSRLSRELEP
Outline: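 Nucleotide exchange followed as fluorescence loss when BODIPY-GDP leaves Rap1B (480 nm excitation, 540 nm emission), read at 5 min intervals over 30 min. Reaction: 100 nM EPAC1, 250 nM RAP1B-BODIPY-GDP, 50 uM GDP; ATA and DMSO define normalization.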
Further: nearly all actives have a fitted effect of over 75% in size.
Potency means the concentration at half of the fitted maximal effect.
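Wherever activity change, negative = inhibition is given: plate controls were DMSO for no effect and ATA control for full effect.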

Structure (SMILES) | activity change, negative = inhibition | Potency
O=C1CCO1 | inactive | 
O=C(CCCN1CCC(n2c(=O)[nH]c3ccccc32)CC1)c1ccc(F)cc1 | inactive: 31.5% [at 75.8 µM] | 
O=C1C2CCN(CC2)C1(CO)CO | inactive: 5.23% | 
CN1CC(CNC(=O)OCc2ccccc2)CC2c3cccc4c3c(cn4C)CC21 (stereo unspecified) | inactive: 8.83% | 
CCC1(CC)C(=O)NC(=O)NC1=O | inactive: 23.4% | 
Oc1ccc2c3c1O[C@H]1c4[nH]c5c(c4C[C@@]4(O)[C@@H](C2)N(CC2CC2)CC[C@]314)C[C@]1(O)[C@H]2Cc3ccc(O)c4c3[C@@]1(CCN2CC1CC1)[C@@H]5O4 | inactive: 7.24% | 
O=C1C(Cl)=C(Cl)C(=O)C(Cl)=C1Cl |  | active: 39.8 µM
c1csc(CN2CC[C@@]3(CCCNC3)C2)n1 | inactive: 16.6% | 
C[C@@H]1CN(C2CCC(C#N)(c3ccc(F)cc3)CC2)CC[C@]1(C(=O)O)c1ccccc1 (stereo partly specified) | inactive: 16.6% [at 75.8 µM] | 
Clc1ccc(COC(Cn2ccnc2)c2ccc(Cl)cc2Cl)c(Cl)c1 (stereo unspecified) | inactive | 
CN1C2CCC1CC(OC(=O)C1CCC(C(=O)OC3CC4CCC(C3)N4C)(c3ccccc3)c3ccccc31)C2 (stereo unspecified) | inactive: 17.6% | 
NCC(N)C(=O)c1ccccc1 (stereo unspecified) | inactive: 20.8% | 
CC(=O)OC1CC[C@@]2(C)C3CC[C@]4(C)C(=O)CCC4C3CC[C@H]2C1 (stereo partly specified) | inactive: -6.77% | 
c1ccc2sc(SNC3CCCCC3)nc2c1 | inactive: 3.51% | 
O=C(Nc1cccc(F)c1)N1CC[C@@]2(CCCN(C(=O)Oc3ccccc3)C2)C1 | inactive: 6.78% | 
CC(C)(C)[C@]1(O)C[C@@H]2OC(=O)C[C@@]23C(=O)O[C@@H]2OC(=O)[C@H](O)[C@]213 | inactive: 12.3% | 
O=C(NC(=O)c1c(F)cccc1F)Nc1ccc(Cl)c(Oc2ncc(C(F)(F)F)cc2Cl)c1 | inactive: 15.1% | 
CC(=O)OC1C2CCC3C1(CC(O)[C@@]1(O)[C@@H](CC(O)C1(C)C)[C@]3(C)O)C[C@@]2(C)O (stereo partly specified) | inactive: 2.53% | 
Ic1cncc(OC[C@@H]2CCN2)c1 | inactive: 2.38% | 
COc1ccc(OC)c(C(O)C(C)N)c1 (stereo unspecified) | inactive: 2.9% [at 75.8 µM] | 
COC(=O)C1=CO[C@@H](C)[C@@H]2CN3CC[C@]4(C(=O)Nc5c4ccc(OC)c5OC)[C@H]3C[C@H]12 | inactive: -6% | 
CCC(=O)O[C@H]1CC[C@H]2[C@@H]3CCC4=CC(=O)CC[C@]4(C)[C@H]3CC[C@]12C | inactive: -3.14% [at 75.8 µM] | 
COc1cccc([C@@]2(O)CCCC[C@@H]2CN(C)C)c1 | inactive: 11.4% | 
COC(=O)[C@@H]1[C@H]2CC[C@@H](C[C@H]1OC(=O)c1ccccc1)N2C | inactive: 10% | 
C[C@]12CCC3C(CC[C@H]4C[C@H](O)CC[C@]34C)C1CC[C@@H]2C(=O)CO (stereo partly specified) | inactive: 13.6% [at 75.8 µM] | 
CNC(=O)N(C)c1nnc(C(C)(C)C)s1 | inactive: -7.67% | 

Structure (SMILES) | activity change, negative = inhibition | Potency
CO[C@]12CC[C@@]3(C[C@@H]1[C@](C)(O)C(C)(C)C)[C@@H]1Cc4ccc(O)c5c4[C@@]3(CCN1CC1CC1)[C@H]2O5 | inactive: -11.3% [at 320 µM] | 
C=C1C([C@@H](O)C[C@H](C)C2O[C@@]3(CCCCO3)CC[C@H]2C)OC2CC[C@@]3(CC[C@@H](/C=C/[C@@H](C)C4CC(C)=C[C@]5(O4)O[C@H](C[C@@](C)(O)C(=O)O)CCC5O)O3)OC2[C@@H]1O (stereo partly specified) | inactive: 25.4% [at 7.83 µM] | 
CN1CC[C@@]2(CCCN(C(=O)c3ccco3)C2)C1 | inactive: 15.8% | 
C=CCN1C[C@H](C)N([C@@H](c2ccccc2)c2ccc(C(=O)N(CC)CC)cc2)C[C@H]1C | inactive: 3.7% | 
C=CCC1([C@H](C)CCC)C(=O)NC(=O)NC1=O | inactive: 24.4% [at 320 µM] | 
O=[N+]([O-])c1ccc(O)c([N+](=O)[O-])c1 | inactive: 5.37% | 
CN1CCCC2(CCN(C(=O)c3csnn3)CC2)C1 | inactive: 13.4% | 
COC1=C[C@]23CCCN2CCc2cc4c(cc2[C@@H]3[C@@H]1O)OCO4 | inactive: -4.13% | 
O[C@@H](Cc1ccncc1)C(Cl)(Cl)Cl | inactive: 1.31% | 
CC(=O)OC1CC2C(C)(C)C(=O)C=C[C@]2(C)C2CC[C@]3(C)C(=CC(=O)OC3c3ccoc3)[C@]12C (stereo partly specified) | inactive: -26.3% | 
CN1CCN(c2ccc3ccccc3n2)CC1 | inactive | 
CCn1cnc2c(Nc3cccc(Cl)c3)nc(N[C@@H]3CCCC[C@@H]3N)nc21 | inactive: -5.17% [at 75.8 µM] | 
CN1[C@@H]2CC[C@H]1CC(OC(c1ccc(F)cc1)c1ccc(F)cc1)C2 (stereo partly specified) | inactive: -3.41% | 
C=CC1CN2CCC1CC2C(O)c1ccnc2ccccc12 (stereo unspecified) | inactive | 
C[C@H]1CCCC=CC2C[C@H](O)C[C@@H]2[C@H](O)C=CC(=O)O1 (stereo partly specified) | inactive: 17.8% | 
O=S1(=O)N(CCN2CC=C(c3c[nH]c4cc(F)ccc34)CC2)c2cccc3c2N1CCC3 | inactive: -1.24% [at 75.8 µM] | 
NC[C@H](CS(=O)(=O)O)c1ccc(Cl)cc1 | inactive: -1.07% | 
N#CC(C#N)=Cc1ccc([N+](=O)[O-])c(O)c1 | inactive | 
O=C(CCCN1CCC2(CC1)C(=O)N(Cc1cccc(F)c1)CN2c1ccccc1)c1ccc(F)cc1 | inactive | 
c1ccc2c(c1)[nH]c1cnccc12 | inactive: -8.13% | 
c1cc2c(c(NC3=NCCN3)c1)CCCC2 | inactive: 25.4% | 
CN1CCCC2(CCN(C(=O)c3ccncc3)CC2)C1 | inactive: 13.9% | 
CS(=O)(=O)N1CCC2(CC1)CN(Cc1ccncc1)C2 | inactive: 13.1% | 
NC(=NCCCC(N)C(=O)O)N[N+](=O)[O-] (stereo unspecified) | inactive: 8.24% | 
CNC(=O)Oc1ccccc1C(=O)Nc1ccccc1 | inactive: 10.1% | 
